# Screen size: about 220,000 compounds; about 5,700 (2.6%) were called active. Inconclusive means that the source gave no clear call. Such entries were picked first, then a sample of the others. Calls follow the shape of the dose curve; as a rule, active = well fitted inhibition curve with a large enough effect; inconclusive = small, poorly fitted or top-dose-only effect; inactive = no such curve, though single readings can be large or run the other way. A potency beside an inconclusive call is a rough fit, not a confirmed value.
# Molecular target: Lysine-specific demethylase 5B (Homo sapiens) (UniProt Q9UGL1)
# Test: Primary screen for KDM5B Histone Demethylases FDH-coupled qHTS; also: nearly all actives have a fitted effect of over 70% in size; as to activity change, negative = inhibition: 0% is about no effect
# Settings: FDH-coupled NADH fluorescence (FDH is formaldehyde dehydrogenase); activity change, negative = inhibition: at 57.7 µM (top of the series) unless noted
# Summary of the method: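 Measured: NADH fluorescence change, 30 min, RT. System: KDM5BΔAP 200 nM final, H3K4me3 peptide, α-KG, Fe(II), ascorbate, NAD⁺ plus FDH, pH 7.5 HEPES. Compounds: titrated, 10 min pre-incubation with enzyme.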
# Potency is read from the fitted curve at half-maximal effect; tags tell the direction and shape of the fitted curve.
# Chain of UniProt Q9UGL1 (Q9UGL1 whole entry, looked up): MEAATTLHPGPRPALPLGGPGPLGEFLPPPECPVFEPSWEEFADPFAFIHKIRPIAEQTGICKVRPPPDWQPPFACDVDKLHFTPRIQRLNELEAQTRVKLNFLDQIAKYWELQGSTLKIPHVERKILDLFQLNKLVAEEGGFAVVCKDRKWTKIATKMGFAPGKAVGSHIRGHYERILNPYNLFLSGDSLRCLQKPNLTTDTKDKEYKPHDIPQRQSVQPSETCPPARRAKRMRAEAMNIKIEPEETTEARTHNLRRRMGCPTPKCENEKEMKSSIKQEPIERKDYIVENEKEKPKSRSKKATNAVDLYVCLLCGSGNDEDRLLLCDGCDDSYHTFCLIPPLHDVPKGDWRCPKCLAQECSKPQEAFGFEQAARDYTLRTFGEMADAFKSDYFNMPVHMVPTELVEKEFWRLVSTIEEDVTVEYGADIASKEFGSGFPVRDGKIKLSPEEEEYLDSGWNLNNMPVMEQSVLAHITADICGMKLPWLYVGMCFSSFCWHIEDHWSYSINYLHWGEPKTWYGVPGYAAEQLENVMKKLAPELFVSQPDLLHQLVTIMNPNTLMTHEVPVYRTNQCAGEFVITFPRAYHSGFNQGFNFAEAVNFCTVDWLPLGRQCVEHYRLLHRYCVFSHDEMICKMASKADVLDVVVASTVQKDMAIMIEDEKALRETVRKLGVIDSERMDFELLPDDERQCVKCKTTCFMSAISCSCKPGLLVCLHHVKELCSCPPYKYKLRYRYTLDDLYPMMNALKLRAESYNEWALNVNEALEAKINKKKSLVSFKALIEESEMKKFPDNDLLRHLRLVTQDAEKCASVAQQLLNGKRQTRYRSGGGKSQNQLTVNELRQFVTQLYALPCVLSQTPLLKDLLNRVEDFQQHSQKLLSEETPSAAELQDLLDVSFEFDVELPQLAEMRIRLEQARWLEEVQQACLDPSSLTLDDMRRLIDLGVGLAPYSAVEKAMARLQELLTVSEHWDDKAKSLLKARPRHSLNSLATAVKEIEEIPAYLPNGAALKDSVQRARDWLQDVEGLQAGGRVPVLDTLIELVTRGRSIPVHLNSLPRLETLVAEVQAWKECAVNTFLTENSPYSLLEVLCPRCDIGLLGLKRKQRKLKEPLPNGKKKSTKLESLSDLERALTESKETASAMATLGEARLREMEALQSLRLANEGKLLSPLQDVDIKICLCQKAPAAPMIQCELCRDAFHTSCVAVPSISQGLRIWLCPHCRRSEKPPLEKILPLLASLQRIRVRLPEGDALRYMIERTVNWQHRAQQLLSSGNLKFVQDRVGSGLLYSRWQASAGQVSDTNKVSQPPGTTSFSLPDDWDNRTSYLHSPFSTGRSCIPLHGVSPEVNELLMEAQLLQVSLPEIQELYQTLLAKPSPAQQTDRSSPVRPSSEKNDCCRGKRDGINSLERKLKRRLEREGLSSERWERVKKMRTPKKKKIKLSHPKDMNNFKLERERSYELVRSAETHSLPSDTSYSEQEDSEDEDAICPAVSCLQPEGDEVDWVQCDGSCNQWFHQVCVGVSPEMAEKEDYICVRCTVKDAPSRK
SMILES,Potency,"activity change, negative = inhibition"
O=C(Nc1ccccc1)N[C@H]1C[C@H]2C(=O)NC[C@@H](CCC(=O)N3CCCCC3)N2C1,"inconclusive: 31.6 µM [inhibitor, single point]",–
Cc1cccc(-n2c(-c3ccco3)nc3c(cnn3-c3ccccc3C)c2=O)c1,"inconclusive: 2.51 µM [inhibitor, partial curve, poor fit]",–
Cc1ncc(-c2c(-c3ccccc3)ncn2CC(c2ccco2)N2CCCC2)[nH]1 (stereo unspecified),active: 25.1 µM,–
COc1ccc(-c2nc(Cn3c(SCc4cccc(Cl)c4)nc4ccncc43)c(C)o2)cc1,"inconclusive: 31.6 µM [inhibitor, partial curve, poor fit]",–
CC(=O)c1c(C)nc2ccccc2c1-c1ccccc1,–,inactive: 1.97%
Cc1ccc(Sc2c(C)nn(C(=O)COc3ccccc3)c2C)cc1,"inconclusive: 15.8 µM [inhibitor, partial curve, poor fit]",–
CC(C)COC(=O)N1CCCn2nc(-c3nc4ccccc4n3C)cc2C1,"inconclusive: 15.8 µM [inhibitor, partial curve, poor fit]",–
O=S(=O)(NN1CCOCC1)c1ccc(Br)cc1,"inconclusive: 11.2 µM [inhibitor, partial curve, poor fit]",–
CC1=C(c2ccc(F)cc2)S(=O)(=O)N=C1N1CCC(C(=O)NCCc2ccco2)CC1,"inconclusive: 1.58 µM [inhibitor, full curve, poor fit]",–
CC(C)n1cc2cc(C(=O)O)sc2c1,"inconclusive: 25.1 µM [inhibitor, partial curve]",–
Cc1noc2c(-c3cn[nH]c3)cc(-c3ccc(F)cc3)nc12,–,inactive: 17.8% [at 86.2 µM]
Cc1cccc(Cn2c(C)c(C)c3cc(C(=O)NCc4ccco4)ccc32)c1,"inconclusive: 25.1 µM [inhibitor, partial curve, poor fit]",–
COC(=O)c1nc2n(n1)C(c1cccc(Br)c1)C(C(=O)Nc1ccccc1OC)=C(C)N2 (stereo unspecified),–,inactive: -5.38%
COc1ccc2[nH]c(=O)c(CN(C(=O)c3cccc(Cl)c3)c3ccccc3OC)cc2c1,"inconclusive: 2.24 µM [inhibitor, partial curve, poor fit]",–
CCOc1cc(/C=C/c2nc3ccccc3o2)ccc1O,"inconclusive: 25.1 µM [inhibitor, partial curve, poor fit]",–
N#Cc1ccnc(N2CCN(C(=O)Nc3ccccc3)CC2)c1,"inconclusive: 28.2 µM [inhibitor, single point]",–
COc1ccc(-c2nc3c(s2)CN(C(C(=O)O)c2c[nH]c4ccc(Br)cc24)CC3)cc1 (stereo unspecified),"inconclusive: 28.2 µM [inhibitor, partial curve, poor fit]",–
CC(C)C(=O)Nc1ccc2[nH]cc(C(C(=O)O)N3CCC(Cc4ccccc4)CC3)c2c1 (stereo unspecified),–,inactive: -5.79%
Cc1ccc(S(=O)(=O)C=C(c2ccccc2)c2ccccc2)cc1,–,inactive: 7.06%
C[C@@H]1CN(C(=O)c2ccc3c(c2)NC(C)(COc2ccc4[nH]ccc4c2)CO3)C[C@H](C)O1 (stereo partly specified),"inconclusive: 14.1 µM [inhibitor, partial curve]",–
CCCCc1cc(=O)oc2cc(OCC(N)=O)ccc12,"inconclusive: 3.55 µM [inhibitor, full curve, poor fit]",–

SMILES,Potency,"activity change, negative = inhibition"
CCOC(=O)CCNC(=O)N1C[C@@H](Oc2cccnc2)C[C@H]1C(=O)N1CCOCC1,–,inactive: -22.1%
COc1cccc2c1cc1c(=O)n(CC(=O)N3CCN(c4ccccc4F)CC3)nc(C)n12,"inconclusive: 17.8 µM [inhibitor, partial curve, poor fit]",–
Cc1cccc(C)c1OCc1cc(=O)n2c(-c3ccccc3)csc2n1,–,inactive: -12.2%
Cn1nc(-c2ccc(OCC(=O)Nc3cccc(C(F)(F)F)c3)cc2)c2ccccc2c1=O,"inconclusive: 25.1 µM [inhibitor, partial curve, poor fit]",–
O=C(O)/C(=C/c1cccc(OCc2ccccc2)c1)c1cccs1,–,inactive: -16.9%
CCOC(=O)COc1ccc(/C=N/NC(=O)C(O)(c2ccccc2)c2ccccc2)cc1,"inconclusive: 39.8 µM [inhibitor, single point]",–
Cc1ccc(C(=O)Nc2ccc(F)cc2)cc1S(=O)(=O)N1CCCCCC1,–,inconclusive: -32.1% [inhibitor]
CC(C)c1ccc2oc(-c3ccc(Cl)c(NC(=O)c4cccs4)c3)nc2c1,"inconclusive: 35.5 µM [inhibitor, partial curve, poor fit]",–
COc1ccc(-c2nc3c(c(=O)[nH]c(=O)n3Cc3ccccc3)n2CC2CCCO2)cc1 (stereo unspecified),"inconclusive: 1.78 µM [inhibitor, full curve, poor fit]",–
O=C(NCCc1csc(-c2ccncc2)n1)C1CNCCO1 (stereo unspecified),active: 28.2 µM,–
Cc1ccc(C)c(C(O)Cn2ccn3nc(-c4cccs4)cc3c2=O)c1 (stereo unspecified),active: 20 µM,–
O=C1NC(C(=O)NC2CC2)Cn2cccc21 (stereo unspecified),"inconclusive: 22.4 µM [inhibitor, single point]",–
COc1ccc(-c2cc3nc(N)cc(=O)n3[nH]2)cc1,"inconclusive: 22.4 µM [inhibitor, partial curve, poor fit]",–
CN(Cc1ccc2ccccc2c1)C(=O)CCc1ncc(-c2ccccc2F)o1,–,inactive: 6.54%
CCn1ccnc1CN1CCC(Oc2ccccc2OC)(C(=O)O)CC1,"inconclusive: 8.91 µM [inhibitor, partial curve]",–
Brc1cccc(-c2nc3cc4c(cc3[nH]2)OCCO4)c1,"inconclusive: 25.1 µM [inhibitor, partial curve, poor fit]",–
CCc1ccccc1Nc1nn2c(=O)c3ccc(C(=O)NCc4ccc(C)cc4)cc3nc2s1,"inconclusive: 35.5 µM [inhibitor, partial curve, poor fit]",–
CCC(CC)NC(=O)C1CCc2nc(N3CCN(C(=O)C(C)C)CC3)sc2C1 (stereo unspecified),–,inactive: 13.4%
CCS(=O)(=O)c1ccc2oc([C@H]3CCN(Cc4ccc(OC)cc4)C3)nc2c1,"inconclusive: 35.5 µM [inhibitor, single point]",–
FC(F)(F)c1cccc(-c2ncc[nH]2)c1,"inconclusive: 126 µM [inhibitor, partial curve]",–
